# Measurements published in PubChem BioAssay AID504466 (National Center for Advancing Translational Sciences (NCATS), 2011).
# Hit rate of the full screen: of about 330,000 compounds, about 4,200 (1.3%) were called active. The shares of active, inactive and inconclusive entries below differ from those in the screen. The call rests on the fitted dose curve; in most records, active means well fitted activation curve with a large enough effect; inconclusive means small, poorly fitted or top-dose-only effect; inactive means no such curve, though single readings can be large or run the other way. A potency beside an inconclusive call is a rough fit, not a confirmed value.
# Assay: qHTS screen for small molecules that induce genotoxicity in human embryonic kidney (HEK293T) cells expressing luciferase-tagged ELG1; further: nearly all actives have a fitted effect of over 60% in size; on activity change, positive = activation: % of control where 0% means no effect
# Details: HEK293T ELG1-luciferase reporter, luminescence, 16 h; series mostly up to 46 µM; activity change, positive = activation: at the top concentration
# How it was run: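 16 hr compound incubation (37 °C, 5% CO2) of HEK293T cells carrying luciferase-tagged ELG1; luciferase then measured by ONE-Glo luminescence after 30 min at RT.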
# Potency means the concentration at half of the fitted maximal effect; tags describe the fitted curve by direction and shape.
SMILES,Potency,"activity change, positive = activation"
Cc1cn(-c2ccc(Br)cc2)[nH]c1=O,active: 18.4 µM,–
Clc1ccc(-c2nc(-c3ccccn3)no2)cc1Cl,"inconclusive: 0.651 µM [activator, full curve]",–
Cc1ccc(C(=O)O)cc1NS(=O)(=O)c1ccc2ccccc2c1,–,inactive: -1.23%
CCOC(=O)c1ccc(N=Nc2c(C)c(C#N)c(O)[nH]c2=O)cc1,"inconclusive: 7.3 µM [activator, partial curve]",–
O=C(CNC(=O)COc1ccccc1)NCCN1CCOCC1,–,inactive: 3.37%
COCc1cc(C)nc2sc(C(=O)Nc3cccc(OC)c3)c(N)c12,"inconclusive: 9.2 µM [activator, partial curve]",–
Cc1c(Cl)cnc(NC(=O)CSc2nnc3ccccn23)c1Cl,active: 18.4 µM,–
Cc1nn(CC(=O)c2ccccc2Cl)c(C)c1[N+](=O)[O-],active: 14.6 µM,–
COc1ccccc1CCNC(=O)c1cc(-c2ccccn2)nc2ccc(Br)cc12,"inconclusive: 32.6 µM [activator, partial curve, poor fit]",–
COc1ccc(C(C)=O)cc1COC(=O)c1cnc(Cl)c(Cl)c1,–,inactive: 16.2%
Cc1cc(C)nc(NS(=O)(=O)c2ccc(NC(=O)c3ccc(O)cc3O)cc2)n1,–,inactive: 2.33%
COc1ccc(CCC(=O)N2CCc3ccccc32)cc1,"inconclusive: 14.6 µM [activator, partial curve]",–
COc1ccc(C(=O)NCc2nnc(SCC(=O)N3CCCCC3)o2)cc1,–,inactive: 0.319%
Oc1ccc(-c2csc(NCc3ccco3)n2)cc1,active: 18.4 µM,–
CCN(CC)CCCCNc1ncc2cc(-c3cc(OC)cc(OC)c3)c(NC(=O)NC(C)(C)C)nc2n1,"inconclusive: 29.1 µM [activator, single point]",–
CCCCCCNCC1OCc2ccccc2CO1,–,inactive: 2.09%
O=C(Nc1nc2cc3c(cc2s1)OCCO3)c1ccc([N+](=O)[O-])o1,active: 9.2 µM,–
Cc1ccc(-c2noc(-c3cc4ccccc4oc3=O)n2)cc1,"inconclusive: 18.4 µM [activator, single point]",–
Cc1cc(NC(=O)CSc2nc3c(sc4ccccc43)c(=O)n2CCc2ccccc2)n[nH]1,"inconclusive: 20.6 µM [activator, single point]",–
COc1ccccc1C1=NOC(CN2C(=O)c3ccccc3S2(=O)=O)C1 (stereo not drawn),"inconclusive: 23.1 µM [activator, partial curve]",–
Cc1cc(NCc2ccccc2)nc2ccccc12,–,inactive: -0.772%
CCCN1CCC(=O)N([C@H](CSc2ccc(OC)cc2)CC(C)C)CC1,"inconclusive: 16.4 µM [activator, partial curve, poor fit]",–
Fc1ccc(NC(=S)NCc2ccccc2)cc1,–,inactive: -1.85%
O=C(Nc1ncccc1O)c1cc2ccccc2o1,"inconclusive: 5.8 µM [activator, partial curve]",–

SMILES,Potency,"activity change, positive = activation"
NC(=O)c1ccc(NC(=O)Nc2ccc3c(c2)OCO3)cc1,"inconclusive: 16.4 µM [activator, partial curve, poor fit]",–
Cc1c(NC(=O)c2ccc3c(c2)C(=O)N(CC2CCCO2)C3=O)cccc1C(=O)O (stereo not drawn),–,inactive: 2.27%
CCCN1CCN(S(=O)(=O)c2ccc3c(c2)NC(=O)C(C)C(=O)N3)CC1 (stereo not drawn),"inconclusive: 29.1 µM [activator, partial curve, poor fit]",–
Cc1ccc(CNc2nc3ccccc3s2)s1,"inconclusive: 0.92 µM [activator, partial curve]",–
CCCCCCCCC/C(=N\O)c1ccccn1,"inconclusive: 11.6 µM [activator, partial curve, poor fit]",–
CC1(C)CC(=O)C=C(Nc2ccc3c(c2)OCCO3)C1,–,inactive: 11.2%
Fc1ccc(N=C2NN=C(c3cc(F)ccc3F)CS2)cc1,–,inactive: -2.7%
O=C(N/N=C/c1ccccc1Cl)c1n[nH]c2c1CCCC2,active: 0.291 µM,–
O=C(CN1CCN(S(=O)(=O)c2ccccc2)CC1)Nc1ccc(Cl)c([N+](=O)[O-])c1,"inconclusive: 25.9 µM [activator, partial curve, poor fit]",–
CC(C)(C)OC(=O)CN1C(=O)S/C(=C\c2ccc(-c3cccc(C(=O)O)c3)o2)C1=O,"inconclusive: 23.1 µM [activator, partial curve]",–
COc1ccc(CC(=O)Nc2ccc(N3CCCC3)c(C)c2)cc1,–,inactive: 16.2%
COc1ccc(C(=O)Nc2ccc(-c3ccc(NC(=O)c4ccc(OC)cc4)c(OC)c3)cc2OC)cc1,–,inactive: 15.3%
O=C(NCc1ccccn1)Nc1ccccc1Cl,"inconclusive: 16.4 µM [activator, partial curve, poor fit]",–
COc1ccc(NC(=O)Nc2cccc3c2O[C@H](CN(C)C(=O)NC(C)C)[C@@H](C)CN([C@H](C)CO)C3=O)cc1,–,inactive: 4.57%
Cc1ccc(N=Nc2ccc(N)cc2C)c(S(N)(=O)=O)c1,"inconclusive: 23.1 µM [activator, single point]",–
O=C(Nc1ccc([N+](=O)[O-])cc1)C(=O)Nc1cccc(C(=O)O)c1,"inconclusive: 0.058 µM [activator, full curve, poor fit]",–
Cc1ccc(O)c(NC(=O)c2cc(-c3ccccc3)on2)c1,active: 16.4 µM,–
COCCN(C(=O)c1cccc(-n2cnnn2)c1)c1c(N)n(CC(C)C)c(=O)[nH]c1=O,"inconclusive: 0.082 µM [activator, full curve, poor fit]",–
O=C(NCCN1CCOCC1)c1sc2cc(Cl)ccc2c1Cl,–,inactive: 16%
CC(=O)NC(c1cccc([N+](=O)[O-])c1)c1ccc2cccnc2c1O (stereo not drawn),"inconclusive: 18.3 µM [activator, partial curve, poor fit]",–
c1ccc(CCc2nc3ccccc3[nH]2)cc1,"inconclusive: 11.6 µM [activator, partial curve, poor fit]",–
O=C(COC(=O)c1ccc(Br)c(S(=O)(=O)N2CCOCC2)c1)NC1CC1,–,inactive: -1.73%
CSc1nsc(SCC(=O)Nc2ccc(OC(C)=O)cc2)n1,"inconclusive: 18.3 µM [activator, partial curve, poor fit]",–
CC(=O)Nc1ccc(/C=C/C(=O)c2ccccc2)cc1,active: 16.4 µM,–
